Test results as given in PubChem BioAssay AID504832 (National Center for Advancing Translational Sciences (NCATS), 2011).
About 18,000 (5.8%) of roughly 310,000 compounds were called active. Inconclusive results, whose numbers are uncertain, are shown with a selection of clear calls. The call rests on the fitted dose curve; in most records, active means well fitted inhibition curve with a large enough effect; inconclusive means small, poorly fitted or top-dose-only effect, or another doubt; inactive means no such curve, though single readings can be large or run the other way. No potency is given beside an inconclusive call; the fits are too rough.

Experiment: Primary qHTS for delayed death inhibitors of the malarial parasite plastid, 48 hour incubation
Conditions: P. falciparum luciferase growth in erythrocytes; series mostly up to 28.7 µM; activity change, negative = inhibition: at the top concentration
Summary of the method: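 A one-generation exposure of luciferase-tagged malaria parasites in RPMI 1640/Albumax erythrocyte culture, 37 C and 5% CO2. Inhibition is inferred from decreased luminescence after adding detection reagent.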
On the % scale 0 is the no-effect control and ±100 the full control effect; potency means the concentration at half of the fitted maximal effect; tags describe the fitted curve by direction and shape.

Row | SMILES | activity change, negative = inhibition | Potency
1 | O=C(O)C1C2CC3C(OC(=O)C31)C2Cl (stereo not drawn) | inactive: 1.13% | 
2 | O=C(c1cc(-c2cccc(Cl)c2)nc2ccccc12)N1CCCC1 |  | inconclusive [inhibitor, single point]
3 | Cc1ccc(C)c(N(CC(=O)NCc2ccco2)C(=O)CCC(=O)Nc2ccccn2)c1 |  | active: 14.7 µM
4 | O=C(NCCCN1CCCC1=O)c1cccc(S(=O)(=O)Nc2ccc(Br)cc2)c1 |  | inconclusive [inhibitor, partial curve, poor fit]
5 | CC(C)c1ccc(OCC(=O)Nc2c3c(nn2C(C)(C)C)CS(=O)(=O)C3)cc1 |  | inconclusive [inhibitor, single point]
6 | O=C(NCc1ccccc1)c1ccc(Br)o1 | inactive: 9.43% | 
7 | CCCCOc1ccccc1NC(=O)c1ccco1 |  | inconclusive [inhibitor, single point]
8 | Cc1nc(-c2ccncc2)sc1C(=O)Nc1ccc(Br)cc1 |  | inconclusive [inhibitor, single point]
9 | Cc1ccc2cc(CCNC(=O)c3cc4ccccc4o3)c(=O)[nH]c2c1C |  | inconclusive [inhibitor, partial curve, poor fit]
10 | O=C(N/N=C\c1ccc(F)cc1)c1cc(OCC(F)(F)F)ccc1OCC(F)(F)F |  | inconclusive [inhibitor, full curve, poor fit]
11 | COc1ccc(-n2c(-c3ccc(Cl)cc3)c[nH]c2=S)cc1 |  | inconclusive [inhibitor, single point]
12 | COc1cccc(C(C(=O)NC2CCCC2)N(Cc2cccnc2)C(=O)Cc2cccs2)c1 (stereo not drawn) |  | inconclusive [inhibitor, single point]
13 | N#CC(C#N)=Cc1ccc(-c2ccc(S(=O)(=O)N=C(N)N)cc2)o1 |  | inconclusive [inhibitor, single point]
14 | CCOC1(C)OCC(=O)[C@]2(CCC3C4CCC5=CC(=O)C=CC5(C)C4C(=O)CC32C)O1 (stereo partly drawn) |  | active: 10.4 µM
15 | CCc1c(C)nc(N)nc1N1N=C1SCC(=O)OC | inactive: 2.6% | 
16 | O=C(Nc1ccccc1C(=O)NCc1cccnc1)c1ccccc1Cl | inactive: -3.73% | 
17 | CCOC(=O)C(=O)NN=C(c1ccccc1)c1ccccc1 | inactive: 0.281% | 
18 | CC(=O)c1sccc1NC(=O)c1ccccc1C(=O)O | inactive: 17.9% | 
19 | Cn1c2ccccc2c2cc(C(=O)N3CCN(CCO)CC3)sc21 | inactive: 13.6% | 
20 | CCC(C)(C)NC(=O)CN(C(=O)c1snc(C(N)=O)c1N)c1ccc2nc(C)sc2c1 |  | inconclusive [inhibitor, partial curve, poor fit]
21 | CCCOc1cc(NCc2ccccc2)c2ncn(C(C)C)c2c1 |  | active: 8.28 µM
22 | Cc1cc(N/N=C/c2ccc(F)cc2)nc(NCc2ccccc2)n1 |  | active: 0.415 µM
23 | CC(C)(C)C1CCC(OC(=O)c2ccncc2)CC1 (stereo not drawn) |  | active: 11.7 µM
24 | COc1ccc(-n2c(O)c(/C(C)=N/N3CCCCCC3)c(=O)[nH]c2=O)cc1 |  | inconclusive [inhibitor, partial curve, poor fit]

Row | SMILES | activity change, negative = inhibition | Potency
25 | Cc1ccccc1NC(=O)Cc1nc(COC(=O)c2ccc(Cl)nc2)cs1 |  | inconclusive [inhibitor, single point]
26 | CC(NS(=O)(=O)c1ccc(Br)cc1)C(=O)NCCc1ccccc1 (stereo not drawn) | inactive: -19.8% | 
27 | O=C(NCc1c(F)cccc1F)c1cc(COc2c(F)cccc2F)on1 | inactive: 29.8% | 
28 | O=C1c2ccccc2NC(c2ccccc2)N1NS(=O)(=O)c1ccccc1 (stereo not drawn) |  | inconclusive [inhibitor, single point]
29 | Clc1ccc(-c2nc3ncccn3c2Nc2ccc3c(c2)OCCO3)cc1 |  | inconclusive [inhibitor, full curve]
30 | COCCNC(=O)C(=O)N/N=C/c1ccc(C(=O)OC)cc1 | inactive: 15.9% | 
31 | COc1ccc(NC(=O)[C@@H]2[C@@H]3C(=O)N(C4CCCCC4)C(=O)[C@@H]3C3c4ccccc4C=CN32)cc1 (stereo partly drawn) |  | active: 7.38 µM
32 | Nc1ncnc2c1cnn2-c1ccccc1 | inactive: 66.3% | 
33 | COc1ccc(CC(N)C(=O)NC2C(CO)OC(n3cnc4c(N(C)C)ncnc43)C2O)cc1 (stereo not drawn) |  | active: 0.379 µM
34 | Cc1ccc(/C=C2\SC(=S)N(/N=C/c3cc([N+](=O)[O-])ccc3O)C2=O)o1 |  | inconclusive [inhibitor, single point]
35 | COC(=O)c1sc(=S)n(-c2ccccc2OC)c1N | inactive: 33.8% | 
36 | COc1ccc(CCN2CC(C(=O)N(C)Cc3c(C)n[nH]c3C)CCC2=O)cc1 (stereo not drawn) | inactive: 1.7% | 
37 | COc1ccc(N(C)C(=O)c2oc(=O)c3ccccc3c2-c2ccc(C)cc2)c(OC)c1 |  | inconclusive [inhibitor, partial curve, poor fit]
38 | CN(CC(=O)NCc1ccccc1)CC(=O)Nc1ccc(Cl)c(C(F)(F)F)c1 |  | inconclusive [inhibitor, single point]
39 | CCOCCCNC(=O)c1ccccc1NC(=O)C1=C(C)OCCS1 | inactive: 5.47% | 
40 | CC(C)S(=O)(=O)c1cnc(-c2ccccn2)nc1N |  | inconclusive [inhibitor, partial curve, poor fit]
41 | Cc1cccc(NC(=O)Cn2nnc(-c3ccc(CN4CCCC4)cc3)n2)c1C |  | inconclusive [inhibitor, single point]
42 | O=C(CSc1nc2ccc(Nc3nc(N4CCOCC4)nc(N4CCOCC4)n3)cc2s1)Nc1ccccc1Cl |  | active: 11.7 µM
43 | Cn1nc(C(=O)Nc2c(-c3ccccc3)nc3sccn23)c2ccccc2c1=O |  | inconclusive [inhibitor, single point]
44 | COc1ccc([N+](=O)[O-])cc1NC(=O)C(C)Sc1nc(-c2ccccc2)cs1 (stereo not drawn) |  | inconclusive [inhibitor, single point]
45 | O=C(CCc1nc2ccccc2c(=O)[nH]1)N1CCN(S(=O)(=O)c2ccc(F)cc2)CC1 |  | inconclusive [inhibitor, single point]
46 | COc1ccc(-c2cnc3n2CCCCC3)cc1 | inactive: 10.5% | 
47 | CCOc1ccccc1NC(=O)Nc1ccc(CC#N)cc1 | inactive: 7.25% | 
48 | O=C(O)CC1(O)C(=O)N(Cc2ccccc2)c2ccccc21 (stereo not drawn) | inactive: 16.8% | 
